Source: the supplement of paper PMC12217912
The list shows a part of the results. The full chains were built here from the parent and the listed change. Inactive controls read about 0.05.

B1: TEV protease; numbered along this chain (parent)
chain: MGESLFKGPRDYNPISSSICHLTNESDGHTTSLYGIGFGPFIITNKHLFRRNNGTLVVQSLHGVFKVKDTTTLQQHLVDGRDMIIIRMPKDFPPFPQKLKFREPQREERICLVTTNFQTKSMSSMVSDTSCTFPSGDGIFWKHWIQTKDGQCGSPLVSTRDGFIVGIHSASNFTNTNNYFTSVPKNFMELLTNQEAQQWVSGWRLNADSVLWGGHKVFMVKPEEPFQPVKEATQL

Variants of: B1
Experiment: raw area under fraction-flipped curve 0-4 h after induction (AUC4h, not background-subtracted), DNA-recorder readout of cleavage of the substrate (dimensionless); higher = more cleavage of the substrate by the protease variant
Conditions: temperature: 34 °C; time window: 0-4 h after rhamnose induction
Method: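 In vivo DNA recorder in E. coli TOP10(DE3) ΔrhaA at 34 °C. Each TEVp single-site mutant (parent TEVp 0) is paired with a single-site variant of the 7-mer TEVs (canonical ENLYFQ|S). The substrate sits between flexible linkers in a Bxb1-sfGFP-TEVs-SsrA fusion, so cleavage stabilises Bxb1 and speeds flipping of a recombination array, read by NGS. The value is the raw area under the fraction-flipped curve over 0-4 h after rhamnose induction (AUC4h), with ≥20 reads per time point. It is not background-subtracted; inactive controls average about 0.047.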
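Also: Bxb1 expression induced with 0.2% (w/v) L-rhamnose at OD600 near 0.5, cultures sampled hourly, flipped fraction per protease–substrate barcode pair counted by paired-end Illumina sequencing.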

Row | Variant | area with substrate ENAYFQS | area with substrate ENEYFQS | area with substrate ENGYFQS | area with substrate ENHYFQS | area with substrate ENKYFQS | area with substrate ENNYFQS | area with substrate ENPYFQS | area with substrate ENQYFQS | area with substrate ENRYFQS | area with substrate ENSYFQS | area with substrate ENDYFQS | area with substrate ENFYFQS | area with substrate ENTYFQS | area with substrate ENIYFQS | area with substrate ENVYFQS | area with substrate ENYYFQS | area with substrate ENCYFQS | area with substrate ENWYFQS | area with substrate ENMYFQS
1 | MGESLFKGPRDYNPISSSICHLTNESDGHTTSLYGIGFGPFIITNKHLFRRNNGTLVVQSLHGVFKVKDTTTLQQHLVDGRDMIIIRMPKDFPPFPQKLKFREPQREERICLVTTNFQTKSMSSMVSDTSCTFPSGDGIFWKHWIQTKDGQCGSPLVSTRDGFIVGIHSASNFTNTNNYFTSVPKNFMELLTNQEAQQWVSGWRLNADSVFWGGHKVFMVKPEEPFQPVKEATQL [L211F] | 0.0564 | 0.0606 | 0.0614 | 0.0611 | 0.0679 | 0.0538 | 0.0612 | 0.0557 | 0.0586 | 0.0647 | – | – | – | – | – | – | – | – | –
2 | MGESLFKGPRDYNPISSSICHLTNESDGHTTSLYGIGFGPFIITNKHLFRRNNGTLVVQSLHGVFKVKDTTTLQQHLVDGRDMIIIRMPKDFPPFPQKLKFREPQREERICLVTTNFQTKSMSSMVSDTSCTFPSGDGIFWKHWIQTKDGQCGSPLVSTRDGFIVGIHSASNFTNTNNYFTSVPKNFMELLTNQEAQQWVSGWRLNADSVLWGGMKVFMVKPEEPFQPVKEATQL [H215M] | 0.0639 | 0.0691 | 0.0609 | 0.0248 | – | 0.0675 | – | 0.0691 | 0.0503 | 0.0477 | 0.0643 | 0.0644 | 0.0657 | – | – | – | – | – | –
3 | MGESLFKGPRDYNPISSSICHLTNESDGHTTSLYGIGFGPFIITNKHLFRRNNGTLVVQSLHGVFKVKDTTTLQQHLVDGRDMIIIRMPKDFPPFPQKLKFREPQREERICLVTTNFQTKSMSSMVSDTSCTFPSGDGIFWKHWIQTKDGQCGSPLVSTRDGFIVGIHSASNFTNTNNYFTSVPKNFMELLTNQEAQQWVSGWRLNADSVLWGGNKVFMVKPEEPFQPVKEATQL [H215N] | 0.0564 | 0.0583 | 0.0572 | – | 0.0513 | 0.045 | 0.0842 | – | – | 0.0781 | 0.06 | – | – | 0.0416 | 0.0672 | 0.0724 | – | – | –
4 | MGESLFKGPRDYNPISSSICHLTNESDGHTTSLYGIGFGPFIITNKHLFRRNNGTLVVQSLHGVFKVKDTTTLQQHLVDGRDMIIIRMPKDFPPFPQKLKFREPQREERICLVTTNFQTKSMSSMVSDTSCTFPSGDGIFWKHWIQTKDGQCGSPLVSTRDGFIVGIHSASNFTNTNNYFTSVPKNFMELLTNQEAQQWVSGWRLNDDSVLWGGHKVFMVKPEEPFQPVKEATQL [A207D] | 0.0619 | 0.065 | 0.0582 | 0.0618 | 0.0706 | 0.0677 | 0.0637 | 0.0604 | 0.0524 | 0.0677 | 0.0681 | 0.0567 | 0.0663 | 0.107 | – | – | 0.0637 | 0.0515 | –
5 | MGESLFKGPRDYNPISSSICHLTNESDGHTTSLYGIGFGPFIITNKHLFRRNNGTLVVQSLHGVFKVKDTTTLQQHLVDGRDMIIIRMPKDFPPFPQKLKFREPQREERICLVTTNFQTKSMSSMVSDTSCTFPSGDGIFWKHWIQTKDGQCGSPLVSTRDGFIVGIHSASNFTNTNNYFTSVPKNFMELLTNQEAQQWVSGWRLNADLVLWGGHKVFMVKPEEPFQPVKEATQL [S209L] | 0.0644 | – | 0.0525 | 0.0696 | – | – | – | 0.0646 | – | – | 0.049 | 0.0555 | – | – | – | – | 0.0616 | – | –
6 | MGESLFKGPRDYNPISSSICHLTNESDGHTTSLYGIGFGPFIITNKHLFRRNNGTLVVQSLHGVFKVKDTTTLQQHLVDGRDMIIIRMPKDFPPFPQKLKFREPQREERICLVTTNFQTKSMSSMVSDTSCTFPSGDGIFWKHWIQTKDGQCGSPLVSTRDGFIVGIHSASNFTNTNNYFTSVPKNFMELLTNQEAQQWVSGWRLNADSVLWGGHWVFMVKPEEPFQPVKEATQL [K216W] | 0.0606 | 0.0628 | – | 0.0646 | 0.0496 | – | 0.0543 | 0.084 | 0.0584 | 0.0565 | 0.0508 | 0.074 | 0.0511 | 0.0887 | 0.068 | 0.0603 | 0.0733 | – | 0.0763
7 | MGESLFKGPRDYNPISSSICHLTNESDGHTTSLYGIGFGPFIITNKHLFRRNNGTLVVQSLHGVFKVKDTTTLQQHLVDGRDMIIIRMPKDFPPFPQKLKFREPQREERICLVTTNFQTKSMSSMVSDTSCTFPSGDGIFWKHWIQTKDGQCGSPLVSTRDGFIVGIHSASNFTNTNNYFTSVPKNFMELLTNQEAQQWVSGWRLNADSVLWGGHKGFMVKPEEPFQPVKEATQL [V217G] | 0.0576 | – | – | – | 0.0537 | – | – | 0.0451 | 0.0572 | 0.0558 | 0.0534 | – | – | 0.0723 | – | – | – | 0.0138 | 0.0521
8 | MGESLFKGPRDYNPISSSICHLTNESDGHTTSLYGIGFGPFIITNKHLFRRNNGTLVVQSLHGVFKVKDTTTLQQHLVDGRDMIIIRMPKDFPPFPQKLKFREPQREERICLVTTNFQTKSMSSMVSDTSCTFPSGDGIFWKHWIQTKDGQCGSPLVSTRDGFIVGIHSASNFTNTNNYFTSVPKNFMELLTNQEAQQWVSGWRLNADSVLWGGHKRFMVKPEEPFQPVKEATQL [V217R] | 0.0961 | – | – | – | 0.0551 | – | – | – | 0.0595 | 0.0896 | – | – | 0.0552 | 0.0577 | – | 0.0768 | 0.0691 | – | 0.0809
9 | MGESLFKGPRDYNPISSSICHLTNESDGHTTSLYGIGFGPFIITNKHLFRRNNGTLVVQSLHGVFKVKDTTTLQQHLVDGRDMIIIRMPKDFPPFPQKLKFREPQREERICLVTTNFQTKSMSSMVSDTSCTFPSGDGIFWKHWIQTKDGQCGSPLVSTRDGFIVGIHSASNFTNTNNYFTSVPKNFMELLTNQEAQQWVSGWRLNADSVLWGGHKVFPVKPEEPFQPVKEATQL [M219P] | 0.0513 | 0.0667 | 0.0636 | – | – | – | 0.0574 | 0.0653 | – | 0.0584 | 0.0581 | 0.0734 | 0.0563 | 0.0623 | 0.053 | 0.0761 | 0.0616 | 0.051 | –
